From PubChem BioAssay AID1963576 (National Center for Advancing Translational Sciences (NCATS), 2024)
Out of some 46,000 compounds screened, about 60 (0.1%) were called active. Inconclusive results (about 3%) are left out. Calls come from the whole dose curve; as a rule, active = well fitted inhibition curve with a large enough effect; inconclusive = small, poorly fitted or top-dose-only effect; inactive = no such curve, though single readings can be large or run the other way. Some of the results follow.

Experiment: Primary qHTS assay for Inhibitors of ovarian cancer metastasis using an organotypic tumor microenvironment (TME) model.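 For activity change, negative = inhibition: plate controls were DMSO wells for no effect and tomatine positive control wells for full effect.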 Note: nearly all actives have a fitted effect of over 65% in size.
Conditions: SKOV3ip1-GFP adhesion/invasion on 3D omental model, fluorescence; series mostly up to 45.8 µM; activity change, negative = inhibition: at the top concentration
In short: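 A 3D layer of primary human omental fibroblasts, mesothelial cells, fibronectin and collagen I, grown 48 hr, received SKOV3ip1-GFP cells in serum-free medium plus compounds at 0.36-46 umol/L. After 2 hr RT and 16 hr 37 C, fixed adherent GFP cells were counted; normalized to DMSO and tomatine.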

Activity change, negative = inhibition, inactive:
O=C(O)c1ccc2c(c1)nc(Nc1cccc(Cl)c1)c1ccncc12 -4.8%
COc1ccc(N2CCN(S(=O)(=O)c3ccc4c(c3)CC(C)N4C(C)=O)CC2)cc1 (configuration not stated) 9.71%
CCN(CCCNC(=O)c1c(C)oc2ncn(CC(C)C)c(=O)c12)Cc1ccccc1 4.14%
Cc1ccc(Cl)cc1NC(=O)c1oc2c(c1C)-c1[nH]ncc1CC2 20.1%
CCOC(=O)c1cnc2c(Cl)cccc2c1NCCN1CCOCC1 -8.88%
CCc1ccccc1NS(=O)(=O)c1ccc(OC)c2ncccc12 5.17%
COc1ccc2c(C)c(CCC(=O)NCCc3ccccc3OC)c(=O)oc2c1 -8.74%
CCOC(=O)c1ccccc1NC(=O)CSc1cn(CC(=O)N2CCCCC2)c2ccccc12 -6.53%
O=C(Nc1ccc(Cl)cc1)C1CCCN(S(=O)(=O)c2ccc3[nH]c(=O)ccc3c2)C1 (configuration not stated) -19%
Cc1ccc(Oc2c(C(F)(F)F)oc3c(CN4CCCCC4)c(O)ccc3c2=O)cc1 0.627%
COc1cc(CN(C(=O)Nc2ccccc2)c2ccccn2)cc(OC)c1OC -0.114%
CCc1ccccc1NS(=O)(=O)c1ccc2[nH]cc(C(=O)N3CCCCC3)c(=O)c2c1 1.29%
CCOC(=O)c1cccc(NC(=O)c2oc3c(c2C)-c2[nH]ncc2CC3)c1 12.5%
Nc1ccn([C@@H]2O[C@H](CO)[C@@H](O)C2O)c(=O)n1 (some centres not stated) -20%
COc1ccc(NC(=O)CC2C(=O)N(c3ccc(F)cc3)C(=O)N2Cc2cccnc2)cc1 (configuration not stated) 2.82%
COc1cc(Cl)cn2c(-c3cccc(NC4CNC4)n3)cnc12 6.77%
COc1cccc(CNC(=O)C2CCCN(S(=O)(=O)c3ccc4c(ccn4C)c3)C2)c1 (configuration not stated) -5.91%
COc1ccc(Cl)cc1NC(=O)c1ccc2nc(Cc3ccccc3)oc2c1 -4.28%
Cc1ccc(NC(=O)c2cc(S(=O)(=O)NCCC3=CCCCC3)ccc2F)cc1F 1.39%
CCCCNC(=O)C1CCCN(Cc2nc(-c3ccc(Cl)cc3)oc2C)C1 (configuration not stated) 2.19%
Cc1ccc(-n2nc(C(=O)N3CCN(c4cc(Cl)ccc4C)CC3)c(=O)n(C)c2=O)cc1 -20.7%
Cc1c(Cl)cccc1NC(=O)CSc1ncnc2c1sc1ccccc12 0.319%
Cc1cccc(CNC(=O)c2oc3c(c2C)-c2nn(Cc4ccccc4Cl)cc2CC3)c1 6.63%
COc1ccc(NC(=O)C(NS(=O)(=O)c2ccc3c(c2)CCCC(=O)N3)C(C)C)c(OC)c1 (configuration not stated) 4.92%
Cc1cc(C)c(NC(=O)CSc2ccnc(=O)[nH]2)c(C)c1 -4.92%
COc1cc(NC(=O)CCn2c(-c3ccccc3)cc(C(C)=O)c2C)cc(OC)c1 14.6%
Cc1ccc(-n2ncc3c(N4CCCCCC4)ncnc32)cc1 2.96%
O=C(COc1ccccc1)NCc1ccc2c(c1)CCN2C(=O)c1ccc(F)cc1 0.0558%
Cc1ccc(Cn2c(=O)c3cccnc3n(CC(=O)Nc3cccc(C(F)(F)F)c3)c2=O)cc1 -2.89%
NS(=O)(=O)c1ccc(CCNC(=O)C2COc3ccccc3C2)cc1 (configuration not stated) 2.46%
CCc1ccc(C2CC(=O)c3c([nH]c(C(=O)OCC4CCCCC4)c3C)C2)cc1 (configuration not stated) 8.23%
Cc1cc(OCC(=O)Nc2ccc(-c3nc4cc(Cl)ccc4o3)cc2)cc(C)c1Cl 1.25%
CCOc1ccc(/C=C/c2nc(C#N)c(N3CCN(c4ccc(OC)cc4)CC3)o2)cc1 8.94%
CCC(=O)N1CCc2cc(Br)cc(S(=O)(=O)CCC(=O)NCCc3ccc(OC)c(OC)c3)c21 -2.21%
COc1ccc(NS(=O)(=O)c2cc3[nH]c(=O)c(=O)[nH]c3cc2C)cc1Cl -0.794%
CCc1cccc(NC(=O)Nc2ccc3c(c2)N(C)C(=O)c2ccccc2S3)c1 -11%
COc1cc(OC)c(NC(=O)CN2C(=O)CCn3nc(-c4cccn4C)cc32)cc1Cl 2.12%
CCN(CC)CC(C)CNC(=O)CN1C(=O)CSc2ccc(S(=O)(=O)N3CCOCC3)cc21 (configuration not stated) -7.93%
CN(C(=O)C1CCCN(c2ncnc3c2nc2n3CCCCC2)C1)c1ccccc1F (configuration not stated) 4.68%
CC(C)OCCCn1c(SCc2ccccc2C#N)nc2c(sc3ccccc32)c1=O -5.06%
Cc1ccc(NC(=O)Cc2c(C(=O)O)c(C)cn2C)cc1Cl 2.65%
Cc1c(C)c2c(c(C)c1O)CCC(C)(COc1ccc(CC3SC(=O)NC3=O)cc1)O2 (configuration not stated) -5.68%
CCSc1ncc(Cl)c(C(=O)Nc2nc3ccc(OC)cc3s2)n1 3.11%
COc1ccc(CNC(=O)Cc2c(C)c3c(cc(C)c4c(C)c(C)oc43)oc2=O)cc1 -2.94%
Cc1ccc(N(Cc2cccs2)C(=O)c2ccc(Br)o2)cc1 -1.35%
Cn1nc(C(=O)NCc2ccc(Cl)cc2)c2c1-c1ccccc1SC2 6.22%
COc1ccc(CNC(=O)CCS(=O)(=O)c2ccc3c(c2)oc(=O)n3C)cc1 2.23%
CCOc1cc(C2c3c(-c4ccc(Br)cc4)n[nH]c3C(=O)N2c2ccc(Cl)cc2)ccc1O (configuration not stated) -6.89%
CCc1nonc1NC(=O)c1oc2ccccc2c1C -27.5%
CCOC(=O)N1CCC(NC(=O)c2ccc3c(c2)N(Cc2ccc(F)cc2)C(=O)c2ccccc2S3(=O)=O)CC1 2.2%
Cc1ccc(CNC(=O)c2ccc3c(O)c(S(=O)(=O)c4ccccc4)c(=O)[nH]c3c2)cc1 -7.81%
O=C(CSc1nc2ccccc2nc1Cc1ccc(Cl)cc1)NCCc1ccccc1 9.13%
CCOc1ccc(NC(=O)C(NS(=O)(=O)c2ccc3c(c2)CCN3C(C)=O)C(C)C)cc1 (configuration not stated) -2.15%
COc1ccc(CNC(=O)c2nn(-c3ccccc3C)nc2CO)cc1 3.89%
Nc1c(-c2nc(-c3cccs3)no2)nnn1-c1cccc(Cl)c1 16.7%
CCCCC(=O)Nc1ccc2nc(SCC(=O)N3CCCC3)sc2c1 -2.04%
CN[C@@H]1CN(c2ccc3c(=O)c(C(=O)O)cn(-c4nccs4)c3n2)C[C@@H]1OC -4.73% [at 23.2 µM]
CC=C(C(=CC)c1ccc(O)cc1)c1ccc(O)cc1 -8.67%
COc1cccc(CNC(=O)C(NS(=O)(=O)c2ccc3c(c2)CCN3C(C)=O)C(C)C)c1 (configuration not stated) -8.13%
CCc1ccc(Nc2ncnc3c2cnn3-c2cc(Cl)ccc2C)cc1 3.22%
CCCn1c2ccccc2c2cnn(CC(=O)NCCc3ccccc3)c(=O)c21 16.8%
COC(=O)c1ccc(Cn2c(=O)cc(C(F)(F)F)c3c(C)nn(C)c32)cc1 -4.3%
Cc1cccc(-c2nc(Cn3c(=O)cc(-c4ccccc4)c4c(C)nn(C)c43)c(C)o2)c1 3.44%
CCn1cc(C(=O)OCC(=O)Nc2ccc(F)cc2F)c(=O)c2ccc(C)nc21 -0.353%
O=C(NCc1ccc(Cl)cc1)C1CCCN(c2nc3ccccc3n3cccc23)C1 (configuration not stated) -1.77%
O=C(Cn1c2ncccc2c(=O)n1-c1ccccc1)Nc1ccc(F)c(F)c1 4.22%
CCN(c1ccc(OC)cc1)S(=O)(=O)c1ccc2[nH]c(=O)ccc2c1 7.34%
CCOc1ccc(S(=O)(=O)N(CC(=O)NCCSc2ccccc2)c2ccccc2)cc1 18.4%
O=C(CSc1nccn1Cc1ccccc1)NCc1ccccc1Cl -6.69%
CCCn1ccc2c(OCC(=O)NCc3ccccc3Cl)cccc2c1=O 6.05%
Cc1cccc(C)c1Nc1c(-c2ccsc2)nc2ccc(Cl)cn12 6.21%
CCOC(=O)CC(NC(=O)N1CCC(CN2CCC(C)CC2)CC1)c1ccccc1 (configuration not stated) 4.97%
Cc1cc(C)nc(NS(=O)(=O)c2ccc(NC(=O)COc3ccc(C(C)(C)C)cc3)cc2)n1 -2.63%

outcome, inactive:
CCOC(=O)c1c(Nc2ccc(C)cc2)nnc(-c2ccccc2)c1-c1ccccc1
Cn1c(=O)n(-c2ccc(F)c(Cl)c2)c(=O)c2sc3ccccc3c21
COc1ccc(N(Cc2cccs2)C(=O)COc2cccc(Cl)c2)cc1
CC1=C(C(=O)OC2CCCCCC2)C(c2c(F)cccc2Cl)CC(=O)N1 (configuration not stated)
COC(=O)CCSc1nc2sc3c(c2c(=O)n1Cc1ccccc1)CCC(C(C)(C)C)C3 (configuration not stated)
CCC1CCCCN1C(=O)c1ccc2c(c1)N(Cc1cccc(Cl)c1)C(=O)c1ccccc1S2(=O)=O (configuration not stated)
Cc1cc(F)ccc1NC(=O)CCS(=O)(=O)c1ccc2c(c1)NC(=O)CO2
CCOc1cccc2cc(-c3nc(-c4ccccc4C)no3)c(=O)oc12
CCC(C(=O)Nc1ccc(C(=O)OC)cc1)n1c(=O)c(-c2ccccc2NC(C)=O)nc2ccccc21 (configuration not stated)
Cc1nc2c(-c3ccccc3)c(C)nn2c(C)c1CCC(=O)NC(C)c1ccccc1 (configuration not stated)
CCCC(=O)Nc1cc(C)c(O)c(-c2nc3ncccc3o2)c1
CCc1ccc(C(=O)c2cn(CC(=O)Nc3ccc(F)c(F)c3)c3cc(OC)c(OC)cc3c2=O)cc1
Cc1cc(NC(=O)c2ccc(Br)o2)cc(-c2nc3ccccc3o2)c1O
Cn1cc(S(=O)(=O)N2CCCCCC2)cc1C(=O)N1CCN(c2ccc(F)cc2)CC1
CCOc1ccc(NC(=O)C(=O)NCCc2csc(-c3ccc(F)cc3)n2)cc1
Cc1cc(=O)n2nc(N3CCC(C(=O)Nc4ccc(C)c(Cl)c4)CC3)sc2n1
CCCCC(CC)CNC(=O)c1ccc2c(=O)n(Cc3ccc(OC)cc3)c(=O)[nH]c2c1 (configuration not stated)
CCOc1ccccc1NC(=O)c1nnn(CC(=O)Nc2ccc(OC)c(OC)c2)c1N
COc1ccccc1-c1cc(C(=O)N2CCCCC2C)no1 (configuration not stated)
COc1ccc(OC)c(C(C)NC(=O)Cn2c(=O)cc(C)c3c(C)nn(-c4ccc(C)cc4)c32)c1 (configuration not stated)
O=C(Nc1ccccc1C(=O)OCc1cc(=O)n2c3c(sc2n1)CCCC3)c1cccc(Cl)c1
CCc1ccccc1NC(=O)NCc1ccc2c(c1)CCN2C(=O)c1ccccc1
CC(C)Cn1cc(NC(=O)N2CCN(c3ccccc3F)CC2)c2ccccc2c1=O
COC(=O)c1cc2oc3ccccc3c2n1Cc1cc(C)ccc1C
